From PubChem BioAssay AID504832 (National Center for Advancing Translational Sciences (NCATS), 2011)
The whole screen tested about 310,000 compounds, of which about 18,000 (5.8%) were called active. The inconclusive results got no clear call from the source; some entries with a clear call stand among them for comparison. Calls follow the shape of the dose curve; as a rule, active = well fitted inhibition curve with a large enough effect; inconclusive = small, poorly fitted or top-dose-only effect, or another doubt; inactive = no such curve, though single readings can be large or run the other way. Potencies of inconclusive entries are left out as doubtful fits.

Test: Primary qHTS for delayed death inhibitors of the malarial parasite plastid, 48 hour incubation
Conditions: P. falciparum luciferase growth in erythrocytes; series mostly up to 28.7 µM
Method in brief: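 Firefly luciferase activity from engineered P. falciparum reports growth; inhibitors lower the luminescent signal. Cultures contained 2% hematocrit erythrocytes at 0.1% final parasitemia.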
Potency is read from the fitted curve at half-maximal effect; tags tell the direction and shape of the fitted curve.

**Q.** For Oc1cccc2ccc(Nc3ccccn3)nc12, which Potency is on record?
**A.** The Potency was active: 0.37 µM.

**Q.** For O=C1CCCC2=C1C(c1ccco1)Nc1ccc(C(=O)c3ccccc3)cc1N2 (centres undefined), which Potency is on record?
**A.** The Potency was inconclusive [inhibitor, partial curve, poor fit].

**Q.** With CCCCCCNC(=O)c1cccc(-c2ccc(C)c3ccccc23)n1 as the compound, how does the Potency read?
**A.** Its Potency is inconclusive [inhibitor, partial curve, poor fit].

**Q.** For Cc1oc2ccc(OC(=O)N(C)C)cc2c1C(=O)OC(C)C, which Potency is on record?
**A.** Its Potency is inconclusive [inhibitor, partial curve].

**Q.** Which Potency does the source give for N#C/C(=C\c1ccc(OCCN2CCOCC2)cc1)C(=O)Nc1ccccc1 here?
**A.** The Potency was “inactive”.

**Q.** For CCCCOc1ccc(-c2cc(C(=O)NNC(=S)NCC)c3ccccc3n2)cc1, which Potency is on record?
**A.** Its Potency is inconclusive [inhibitor, single point].

**Q.** With O=C(CS(=O)(=O)c1ccccc1)Nc1nccs1 as the compound, how does the Potency read?
**A.** Its Potency is “inactive”.

**Q.** With Cc1ccccc1CN(C)CC(=O)Nc1cccc(S(=O)(=O)N(C)c2ccccc2)c1 as the compound, how does the Potency read?
**A.** The Potency was inconclusive [inhibitor, single point].

**Q.** Which Potency does the source give for COc1ccc(/C=C(\C#N)C(=O)NCC2CCCO2)cc1OC (centres undefined) here?
**A.** Its Potency is “inactive”.

**Q.** For Cc1occc1-c1nnc(SCC(=O)NC2CC2)n1C(C)C, which Potency is on record?
**A.** The Potency was “inactive”.

**Q.** Which Potency does the source give for COc1cc(C(Nc2ccc3c(c2)OCO3)C(=O)NC2CCCCC2)cc(OC)c1OC (centres undefined) here?
**A.** Its Potency is inconclusive [inhibitor, partial curve, poor fit].

**Q.** Which Potency does the source give for Cc1cccc(NC(=O)N2CCCCCC2)c1C here?
**A.** The Potency was inconclusive [inhibitor, single point].

**Q.** Which Potency does the source give for CCOC(=O)C1CCN(C(=O)C2CCN(c3nnc(-n4cccc4)s3)CC2)CC1 here?
**A.** Its Potency is inconclusive [inhibitor, partial curve].

**Q.** For CCOC(=O)CC1CCCCN1Cc1nc(-c2ccc(F)c(OC)c2)oc1C (centres undefined), which Potency is on record?
**A.** Its Potency is inconclusive [inhibitor, partial curve, poor fit].

**Q.** With Oc1cccc(Nc2ccccc2)c1 as the compound, how does the Potency read?
**A.** The Potency was “inactive”.

**Q.** For CCCC(=O)c1ccc(N2CCN(S(=O)(=O)c3ccccc3)CC2)c(F)c1, which Potency is on record?
**A.** Its Potency is inconclusive [inhibitor, single point].

**Q.** With CCCCNC(=S)NNC(=O)c1sccc1C as the compound, how does the Potency read?
**A.** The Potency was “inactive”.

**Q.** With COC(=O)NC1CCC(NC(=O)OC)CC1 (centres undefined) as the compound, how does the Potency read?
**A.** Its Potency is “inactive”.

**Q.** For O=C(CCSCCc1ccccn1)Nc1ccc(Cc2ccncc2)cc1, which Potency is on record?
**A.** The Potency was inconclusive [inhibitor, single point].

**Q.** With NC(=S)N/N=C/c1ccccc1OCc1cccc(Cl)c1 as the compound, how does the Potency read?
**A.** The Potency was active: 13.1 µM.

**Q.** With CCN(CC)CCNC(=O)C1CCN(S(=O)(=O)c2c(C)noc2/C=C/c2ccccc2F)CC1 as the compound, how does the Potency read?
**A.** Its Potency is inconclusive [inhibitor, partial curve].

**Q.** For CCC/C=N/NC(=O)c1[nH]c2c([N+](=O)[O-])cccc2c1C, which Potency is on record?
**A.** The Potency was inconclusive [inhibitor, single point].

**Q.** For CN1CCOc2ccc(S(=O)(=O)N3CCN(S(=O)(=O)c4c(F)cccc4F)CC3)cc21, which Potency is on record?
**A.** Its Potency is inconclusive [activator, partial curve].

**Q.** With CCn1c(=O)c2sccc2n(Cc2ccccc2)c1=O as the compound, how does the Potency read?
**A.** Its Potency is inconclusive [inhibitor, full curve, poor fit].

**Q.** With COc1ccc(N(CC(=O)NCc2cccs2)S(=O)(=O)c2ccc(F)cc2)cc1 as the compound, how does the Potency read?
**A.** The Potency was inconclusive [inhibitor, single point].

**Q.** With Cc1ccsc1C(=O)N1CCc2ccccc2C1 as the compound, how does the Potency read?
**A.** Its Potency is “inactive”.

**Q.** With Cc1ccc(S(=O)(=O)NCC(=O)OC(C(=O)c2ccccc2)c2ccccc2)cc1 (centres undefined) as the compound, how does the Potency read?
**A.** The Potency was inconclusive [inhibitor, single point].

**Q.** Which Potency does the source give for CN(C(=O)c1ccc(NC(=O)Cc2cccc(NC(=O)C3CCN(C(=O)c4ccccc4)CC3)c2)cc1)C1CCCC1 here?
**A.** Its Potency is inconclusive [inhibitor, single point].

**Q.** With COc1ccc(-c2oc(NC(=O)CSc3ncn[nH]3)c(C#N)c2-c2ccc(OC)cc2)cc1 as the compound, how does the Potency read?
**A.** The Potency was inconclusive [inhibitor, single point].

**Q.** Which Potency does the source give for CC(C)NC(=S)N1CCCN(c2ncccc2[N+](=O)[O-])CC1 here?
**A.** The Potency was inconclusive [inhibitor, single point].

**Q.** For CN1CC(c2ccc(C#N)cc2)C2(COc3ccccc3C2=O)C12C(=O)Nc1ccccc12 (centres undefined), which Potency is on record?
**A.** The Potency was inconclusive [inhibitor, partial curve].

**Q.** Which Potency does the source give for CCc1nn(CC(=O)NCCCN(Cc2ccccc2)C(C)C)c(=O)c2cc3sccc3n12 here?
**A.** Its Potency is “inactive”.

**Q.** With O=C(NCCCN1CCOCC1)c1cc(C(=O)C2CCCCC2)c[nH]1 as the compound, how does the Potency read?
**A.** Its Potency is active: 10.4 µM.

**Q.** For COc1ccc(C(c2nnnn2Cc2ccccc2)N2CCN(c3nc4ccccc4s3)CC2)cc1OC (centres undefined), which Potency is on record?
**A.** Its Potency is active: 10.4 µM.

**Q.** For O=C(Nc1ncccc1Cl)C1COc2ccccc2O1 (centres undefined), which Potency is on record?
**A.** Its Potency is “inactive”.

**Q.** For COc1ccc(C2/C=C\CN(C(=O)C3CCCC3)CC(=O)N2Cc2ccc(F)cc2)cc1 (centres undefined), which Potency is on record?
**A.** The Potency was inconclusive [inhibitor, single point].

**Q.** Which Potency does the source give for CN(C)c1cccc2c(S(=O)(=O)NCc3ccc(S(N)(=O)=O)cc3)cccc12 here?
**A.** The Potency was inconclusive [inhibitor, single point].

**Q.** For CCC(C)NC(=O)c1ccc2nc(-c3ccc(OC)c(OC)c3)c(-c3ccc(OC)c(OC)c3)nc2c1 (centres undefined), which Potency is on record?
**A.** Its Potency is active: 2.94 µM.

**Q.** With CC(C(=O)NCc1cccs1)N1CCN(S(=O)(=O)c2ccc3c(c2)OCCCO3)CC1 (centres undefined) as the compound, how does the Potency read?
**A.** The Potency was inconclusive [inhibitor, single point].

**Q.** With O=C(Nc1nccs1)c1cc([N+](=O)[O-])ccc1Cl as the compound, how does the Potency read?
**A.** Its Potency is inconclusive [inhibitor, single point].

**Q.** With CN1CCC(=O)N([C@H](CO)Cc2ccccc2)CC1 as the compound, how does the Potency read?
**A.** The Potency was inconclusive [inhibitor, full curve, poor fit].

**Q.** With CCOC(=O)c1c(NC(=O)c2c(N)n(CCCOC)c3nc4ccccc4nc23)sc2c1CCCC2 as the compound, how does the Potency read?
**A.** Its Potency is inconclusive [inhibitor, single point].

**Q.** Which Potency does the source give for CC(C)Cn1c(SCC(=O)Nc2cc(Cl)c(Cl)cc2Cl)nc(O)cc1=O here?
**A.** Its Potency is inconclusive [inhibitor, single point].

**Q.** Which Potency does the source give for Cc1ccc2[nH]c(O)c(N=NC(=O)c3ccc(NS(=O)(=O)c4cccs4)cc3)c2c1 here?
**A.** The Potency was inconclusive [inhibitor, partial curve].
